# “And” between values parts separate entries of the source, which are not always exact repeats. Equal values may be shown once. The inconclusive results got no clear call from the source; some entries with a clear call stand among them for comparison. For part of these data: Potencies beside an inconclusive call are fits to weak or partial responses and may not hold up. The source made the active and inactive calls. Calls follow the shape of the dose curve; as a rule, active = well fitted curve in the direction sought with a large enough effect; inconclusive = small, poorly fitted or top-dose-only effect, or another doubt; inactive = no such curve, though single readings can be large; an effect the other way counts as inactive or inconclusive.
# Experiments:
# HaCat = assay: Cytotoxic Profiling of Annotated Libraries Using Quantitative High-Throughput Screening (AID 1296008); settings: Five cell lines viability, CellTiter-Glo ATP luminescence, 48-72 h; max response: hits give low values; also: nearly all actives have a fitted effect of over 60% in size; also: potency is read from the fitted curve at half-maximal effect; as to max response: % is scaled to controls: 0 for no effect and ±100 for the full control effect
# Procedure, shortened: (§1)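 Compounds were pin-transferred onto cells and incubated 48 or 72 hr at 37 degree Celsius, 95% humidity. CellTiter-Glo was added, plates sat 10 min at room temperature, then ATP-coupled luminescence was imaged as the viability read-out.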
# NIH3T3 = assay: as above; settings: Five cell lines viability, CellTiter-Glo ATP luminescence, 48-72 h; max response: hits give low values
# Procedure, shortened: as §1
# [1] = Drug repurposing screens with cells derived from glioblastoma tumor samples (AID 1345199); settings: GBM patient neurospheres viability, ATP luminescence, 48 h; Potency: tumour line A unless noted; series mostly up to 46 µM; also: potency is read from the fitted curve at half-maximal effect; nearly all actives have a fitted effect of over 40% in size
# Procedure, shortened: (§2)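 Four patient lines of CD133+ GBM neurospheres were screened at several concentrations; hits were retested in those lines plus three slower-growing GBM lines, using 48-hour treatment and ATP-based viability.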
# 3D7 = assay: qHTS profiling for inhibitors of Plasmodium falciparum proliferation (AID 504749); also: potency is read from the fitted curve at half-maximal effect; nearly all actives have a fitted effect of over 60% in size; settings: P. falciparum in erythrocytes, SYBR Green DNA, 72 h; series mostly up to 28.7 µM
# Procedure, shortened: (§3)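 Parasite proliferation within erythrocytes, 72 h exposure. Endpoint: SYBR Green I fluorescence after overnight lysis at room temperature. Controls: 0.29 uM artemisinin, DMSO.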
# AA1029 = assay: as above; settings: P. falciparum in erythrocytes, SYBR Green DNA, 72 h; series mostly up to 28.7 µM
# Procedure, shortened: as §3
# astro = assay: Drug repurposing screens with cells derived from glioblastoma tumor samples (AID 1345199); settings: viability, ATP luminescence, 48 h; activity, negative = cell killing: at 45.9 µM (top of the series) unless noted; also: potency is read from the fitted curve at half-maximal effect; nearly all actives have a fitted effect of over 40% in size
# Procedure, shortened: as §2
# [2] = qHTS profiling for inhibitors of Plasmodium falciparum proliferation (AID 504749); also: potency is read from the fitted curve at half-maximal effect; nearly all actives have a fitted effect of over 60% in size; settings: P. falciparum in erythrocytes, SYBR Green DNA, 72 h; Potency: parasite line B unless noted; series mostly up to 28.7 µM
# Procedure, shortened: as §3
# [3] = qHTS assay to identify inhibitors of the type 1 interferon - major histocompatibility complex class I in skeletal muscle: Counter screen cell viability and HiBit confirmation (AID 1347412); settings: iHSKM muscle cells + IFN-b, HiBiT or CellTiter-Glo, 24 h; Viability; at 45.9 µM (top of the series)
# Procedure, shortened: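 Human myoblast knock-in line, 4.0 ng/ml IFN-beta stimulation, 24 h compound treatment. Endpoints: HiBiT lytic luminescence (HLA-B level) and CellTiter Glo (ATP). Dosing 12 concentrations, 3-fold steps, 46 uM highest final.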
# KB-3-1 = assay: Cytotoxic Profiling of Annotated Libraries Using Quantitative High-Throughput Screening (AID 1296008); settings: Five cell lines viability, CellTiter-Glo ATP luminescence, 48-72 h; max response: hits give low values; also: nearly all actives have a fitted effect of over 60% in size; also: potency is read from the fitted curve at half-maximal effect; as to max response: % is scaled to controls: 0 for no effect and ±100 for the full control effect
# Procedure, shortened: as §1
# Tags tell the direction and shape of the fitted curve.
smiles,measurement,setting,value
CC(=O)OC[C@]12C[C@H](OC(=O)CC(C)C)C(C)=C[C@H]1O[C@@H]1[C@H](O)C[C@@]2(C)[C@]12CO2,Potency,HaCat,active: 6.32 µM
same,Potency,NIH3T3,active: 0.893 µM
CN1C(=O)[C@@H](NC(=O)c2cc3ccccc3[nH]2)N=C(c2ccccc2)c2ccccc21,Potency,HaCat,"inconclusive: 29.9 µM [inhibitor, single point]"
same,Potency,NIH3T3,"inconclusive: 33.5 µM [inhibitor, single point]"
same,Potency,[1],"inconclusive: 8.91 µM [inhibitor, partial curve]"
same,Potency,3D7,"inconclusive: 17.8 µM [inhibitor, single point]"
same,Potency,AA1029,"inconclusive: 10 µM [inhibitor, single point]"
CC(C)(O)/C=C/C(=O)[C@](C)(O)[C@H]1[C@H](O)C[C@@]2(C)[C@@H]3CC=C4[C@@H](C[C@H](O)C(=O)C4(C)C)[C@]3(C)C(=O)C[C@]12C,Potency,HaCat,"inconclusive: 0.356 µM [inhibitor, full curve]"
same,Potency,NIH3T3,active: 3.17 µM
CN(C)C(=S)SSC(=S)N(C)C,Potency,HaCat,"inconclusive: 33.5 µM [inhibitor, single point]"
same,Potency,NIH3T3,active: 0.422 µM
same,Potency,[1],active: 35.5 µM
same,Potency,astro,"inconclusive: 35.5 µM [inhibitor, single point]"
same,Potency,[2],active: 3.16 µM
same,Potency,AA1029,active: 2.24 µM
CC(C)Oc1cccc(NC(=O)c2ccccc2C(F)(F)F)c1,Potency,HaCat,"inconclusive: 0.172 µM [inhibitor, partial curve, poor fit]"
same,Potency,NIH3T3,"inconclusive: 48.6 µM [inhibitor, single point]"
c1ccc2c(c1)OCC(C1=NCCN1)O2 (stereo unspecified),"activity change, negative = inhibition",[3],inactive: -8.51%
CC[C@@]1(O)C(=O)OCc2c1cc1n(c2=O)Cc2cc3ccccc3nc2-1,"activity change, negative = inhibition",[3],inactive: -5.85% and inactive: -9.34%
CC[C@H](C)[C@H](NC(=O)[C@H]1CCCCN1C)C(=O)N(COC(=O)CC(C)C)[C@H](C[C@@H](OC(C)=O)c1nc(C(=O)N[C@@H](Cc2ccc(O)cc2)C[C@H](C)C(=O)O)cs1)C(C)C,Potency,KB-3-1,active: 0.0008 µM
same,Potency,NIH3T3,active: 0.0012 µM
CCCCOC(=O)c1ccnc2cc(C(OCCN3CCCCC3)c3ccccc3Cl)sc12 (stereo unspecified),Potency,KB-3-1,"inconclusive: 25.9 µM [inhibitor, single point]"
CCC/C=C/C=C/C(=O)O[C@H]1/C(=C/C(=O)OC)C[C@H]2C[C@H]([C@@H](C)O)OC(=O)C[C@H](O)C[C@@H]3C[C@H](OC(C)=O)C(C)(C)[C@](O)(C[C@@H]4C/C(=C/C(=O)OC)C[C@H](/C=C/C(C)(C)[C@]1(O)O2)O4)O3,max response,KB-3-1,inactive: 0.184%
C[C@@H]1O[C@@H](O[C@H]2CC[C@@]3(C)C(CC[C@@H]4C3CC[C@]3(C)[C@@H](C5=CC(=O)OC5)CC[C@]43O)C2)[C@H](O)[C@H](O)[C@H]1O (stereo partly specified),Potency,KB-3-1,active: 0.796 µM
CC(C)OC(=O)c1ccnc2cc(C(OCCN3CCCCC3)c3ccccc3Cl)sc12 (stereo unspecified),Potency,KB-3-1,"inconclusive: 23.1 µM [inhibitor, single point]"
CCCC(C)(COC(N)=O)COC(=O)NC(C)C (stereo unspecified),max response,KB-3-1,inactive: -16.5%
same,outcome,KB-3-1,inactive
C[C@@H]1Cc2c(Cl)cc(C(=O)N[C@@H](Cc3ccccc3)C(=O)O)c(O)c2C(=O)O1,Potency,KB-3-1,"inconclusive: 20.2 µM [inhibitor, single point]"
CC(C)Nc1ccc(Nc2ccccc2)cc1,Potency,KB-3-1,"inconclusive: 29.1 µM [inhibitor, single point]"
COc1cc2c(c(OC)c1OC)-c1ccc(SC)c(=O)cc1[C@@H](NC(C)=O)CC2,Potency,KB-3-1,active: 0.0058 µM
same,Potency,NIH3T3,"inconclusive: 0.0046 µM [inhibitor, full curve]"
C=C1C(=O)OC2/C=C(\COO)CC/C=C(\COC(C)=O)CC(OC(=O)C(C)CC)C12 (stereo unspecified),Potency,KB-3-1,"inconclusive: 8.93 µM [inhibitor, single point]"
same,Potency,NIH3T3,"inconclusive: 14.2 µM [inhibitor, single point]"
CN1C[C@@H]2CN(c3ccc(-c4ccccc4)nn3)C[C@@H]2C1,Potency,KB-3-1,"inconclusive: 20.6 µM [inhibitor, single point]"
CNC(=O)N1N=C(c2ccc(N)cc2)c2cc3c(cc2CC1C)OCO3 (stereo unspecified),Potency,KB-3-1,"inconclusive: 37.2 µM [inhibitor, single point] and inconclusive: 18.4 µM [inhibitor, partial curve, poor fit]"
same,Potency,NIH3T3,"inconclusive: 23.1 µM [inhibitor, single point]"
